Data: paper PMC12820563
The other results are listed elsewhere or left out. The list includes weakly bound sequences.

Target: T1, MBP-FoxP3dN (UniProt Q99JB6)
T1 sequence: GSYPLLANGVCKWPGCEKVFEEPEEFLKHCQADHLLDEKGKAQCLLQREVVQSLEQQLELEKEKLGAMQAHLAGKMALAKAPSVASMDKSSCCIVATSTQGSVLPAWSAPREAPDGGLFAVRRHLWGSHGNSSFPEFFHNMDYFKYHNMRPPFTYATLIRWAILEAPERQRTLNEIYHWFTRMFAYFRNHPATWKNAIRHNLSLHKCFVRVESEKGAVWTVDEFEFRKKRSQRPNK
Assay: PD-seq (MBP pull-down with sequencing)
Details: 20 mM Tris-HCl pH 7.5, 100 mM NaCl, 1.5 mM MgCl2, 0.4 uM protein, 0.1 uM dsDNA library, 30 min, room temperature, amylose pull-down; high values mean tight binding; double strand, one strand shown

Sequence | binding signal (RPM ratio (pull-down/input))
GATGATTGTTCTCCCAGCTGATGAATTCCAACTCTCGAGTAAACAAATTTTCCTAATCTTTCTGTTCAAGCGCCATCTAC | 0.516
GATGATTGTTCTCCCAGCTGATGAATTAGCAATGTCGAGTAAACAAATTTTCCTAATCTTTCTGTTCAAGCGCCATCTAC | 1.08
GATGATTGTTCTCCCAGCTGATGAATTCCAGTTATCGAGTAAACAAATTTTCCTAATCTTTCTGTTCAAGCGCCATCTAC | 0.709
GATGATTGTTCTCCCAGCTGATGAATTGCGGGAGTCGAGTAAACAAATTTTCCTAATCTTTCTGTTCAAGCGCCATCTAC | 0.509
GATGATTGTTCTCCCAGCTGATGAATTAGGTTGGTCGAGTAAACAAATTTTCCTAATCTTTCTGTTCAAGCGCCATCTAC | 1.62
GATGATTGTTCTCCCAGCTGATGAATTCAAACACTCGAGTAAACAAATTTTCCTAATCTTTCTGTTCAAGCGCCATCTAC | 0.767
GATGATTGTTCTCCCAGCTGATGAATTCTGTCGTTCGAGTAAACAAATTTTCCTAATCTTTCTGTTCAAGCGCCATCTAC | 2.26
GATGATTGTTCTCCCAGCTGATGAATTGGATCATTCGAGTAAACAAATTTTCCTAATCTTTCTGTTCAAGCGCCATCTAC | 0.441
GATGATTGTTCTCCCAGCTGATGAATTAAGACGCTCGAGTAAACAAATTTTCCTAATCTTTCTGTTCAAGCGCCATCTAC | 0.432
GATGATTGTTCTCCCAGCTGATGAATTCACAGTGTCGAGTAAACAAATTTTCCTAATCTTTCTGTTCAAGCGCCATCTAC | 0.514
GATGATTGTTCTCCCAGCTGATGAATTCTGGCCGTCGAGTAAACAAATTTTCCTAATCTTTCTGTTCAAGCGCCATCTAC | 0.356
GATGATTGTTCTCCCAGCTGATGAATTAGCACTTTCGAGTAAACAAATTTTCCTAATCTTTCTGTTCAAGCGCCATCTAC | 0.435
GATGATTGTTCTCCCAGCTGATGAATTAAGCTCCTCGAGTAAACAAATTTTCCTAATCTTTCTGTTCAAGCGCCATCTAC | 0.651
GATGATTGTTCTCCCAGCTGATGAATTAACTGCGTCGAGTAAACAAATTTTCCTAATCTTTCTGTTCAAGCGCCATCTAC | 0.531
GATGATTGTTCTCCCAGCTGATGAATTAAGCAAGTCGAGTAAACAAATTTTCCTAATCTTTCTGTTCAAGCGCCATCTAC | 1.51
GATGATTGTTCTCCCAGCTGATGAATTCTCGTGATCGAGTAAACAAATTTTCCTAATCTTTCTGTTCAAGCGCCATCTAC | 0.306
GATGATTGTTCTCCCAGCTGATGAATTTGTCATGTCGAGTAAACAAATTTTCCTAATCTTTCTGTTCAAGCGCCATCTAC | 5.15
GATGATTGTTCTCCCAGCTGATGAATTAGCAGAGTCGAGTAAACAAATTTTCCTAATCTTTCTGTTCAAGCGCCATCTAC | 0.222
GATGATTGTTCTCCCAGCTGATGAATTGGTTTTTTCGAGTAAACAAATTTTCCTAATCTTTCTGTTCAAGCGCCATCTAC | 2.23
GATGATTGTTCTCCCAGCTGATGAATTATTTTCTTCGAGTAAACAAATTTTCCTAATCTTTCTGTTCAAGCGCCATCTAC | 1.07

Sequence | binding signal (RPM ratio (pull-down/input))
GATGATTGTTCTCCCAGCTGATGAATTCACTCGATCGAGTAAACAAATTTTCCTAATCTTTCTGTTCAAGCGCCATCTAC | 0.243
GATGATTGTTCTCCCAGCTGATGAATTCGTTGCATCGAGTAAACAAATTTTCCTAATCTTTCTGTTCAAGCGCCATCTAC | 2.22
GATGATTGTTCTCCCAGCTGATGAATTTGTTGAGTCGAGTAAACAAATTTTCCTAATCTTTCTGTTCAAGCGCCATCTAC | 5.53
GATGATTGTTCTCCCAGCTGATGAATTGTCAAGTTCGAGTAAACAAATTTTCCTAATCTTTCTGTTCAAGCGCCATCTAC | 0.31
GATGATTGTTCTCCCAGCTGATGAATTAGAACAGTCGAGTAAACAAATTTTCCTAATCTTTCTGTTCAAGCGCCATCTAC | 0.253
GATGATTGTTCTCCCAGCTGATGAATTCGCGCTATCGAGTAAACAAATTTTCCTAATCTTTCTGTTCAAGCGCCATCTAC | 0.794
GATGATTGTTCTCCCAGCTGATGAATTCAGTGCCTCGAGTAAACAAATTTTCCTAATCTTTCTGTTCAAGCGCCATCTAC | 0.968
GATGATTGTTCTCCCAGCTGATGAATTACCCCTGTCGAGTAAACAAATTTTCCTAATCTTTCTGTTCAAGCGCCATCTAC | 0.273
GATGATTGTTCTCCCAGCTGATGAATTAGCAACTTCGAGTAAACAAATTTTCCTAATCTTTCTGTTCAAGCGCCATCTAC | 2.03
GATGATTGTTCTCCCAGCTGATGAATTGCCGACCTCGAGTAAACAAATTTTCCTAATCTTTCTGTTCAAGCGCCATCTAC | 0.405
GATGATTGTTCTCCCAGCTGATGAATTGATTTTCTCGAGTAAACAAATTTTCCTAATCTTTCTGTTCAAGCGCCATCTAC | 1.46
GATGATTGTTCTCCCAGCTGATGAATTATCCTAATCGAGTAAACAAATTTTCCTAATCTTTCTGTTCAAGCGCCATCTAC | 0.27
GATGATTGTTCTCCCAGCTGATGAATTTCGGTCATCGAGTAAACAAATTTTCCTAATCTTTCTGTTCAAGCGCCATCTAC | 0.583
GATGATTGTTCTCCCAGCTGATGAATTCTCGACCTCGAGTAAACAAATTTTCCTAATCTTTCTGTTCAAGCGCCATCTAC | 0.188
GATGATTGTTCTCCCAGCTGATGAATTATACCTTTCGAGTAAACAAATTTTCCTAATCTTTCTGTTCAAGCGCCATCTAC | 0.48
GATGATTGTTCTCCCAGCTGATGAATTCGGAGATTCGAGTAAACAAATTTTCCTAATCTTTCTGTTCAAGCGCCATCTAC | 0.341
GATGATTGTTCTCCCAGCTGATGAATTCGTCTGGTCGAGTAAACAAATTTTCCTAATCTTTCTGTTCAAGCGCCATCTAC | 0.451
GATGATTGTTCTCCCAGCTGATGAATTTTTGATCTCGAGTAAACAAATTTTCCTAATCTTTCTGTTCAAGCGCCATCTAC | 0.298
GATGATTGTTCTCCCAGCTGATGAATTAATACATTCGAGTAAACAAATTTTCCTAATCTTTCTGTTCAAGCGCCATCTAC | 0.813
GATGATTGTTCTCCCAGCTGATGAATTCTGAACTTCGAGTAAACAAATTTTCCTAATCTTTCTGTTCAAGCGCCATCTAC | 0.291
